Test results as given in ChEMBL document CHEMBL1201862, “PubChem BioAssay data set” (2004).
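Assay format: 96-well plates, 48-hour exposure. GI50 is the concentration that inhibits growth by half.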 Active and inactive are the calls of the source. Rule as the data show it: active = GI50 up to about 1.1 µM and inactive = higher. Numbered stars: 1 amine (or outer) side, 2 acyl side, 3 side chain; on linkers, the order of the positions; unused ones are H or OH. Bridge positions count the residues as written; N and C are the ends. Square brackets hold non-standard residues; d marks the D form. Peptide text beside a SMILES is read from it. * marks the point of attachment. ξ: configuration not given here. γ4hArg(2R,3R-(OH)2) = N=C(N)NCCC[C@H](N[*:1])[C@@H](O)[C@@H](O)C(=O)[*:2]; Gln(3S,4R-Me2) = C[C@H]([C@H](N)C(=O)O)[C@@H](C)C(N)=O; X46 = CC(C)C[C@H](C)[C@@H](O)[C@@H](C)C(=O)*; X47 = COC(c1ccc(O)cc1)C(N[*:1])C(=O)[*:2]; NMeQ = CN[C@@H](CCC(N)=O)C(=O)O; Thr(3ξ) = CC(O)[C@H](N)C(=O)O; NMeA = CN[C@@H](C)C(=O)O

These compounds were tested on NCI-H322M (assay: growth of human tumour cells (NCI), 48 h).

Row | SMILES | GI50
1 | CC(=O)OCC1OC(OC2CC3C(C)(C)C(O)CC[C@]3(C)C3CCC45CC4(CC[C@H]5C(C)CC(O)C4OC4(C)C)[C@]23C)C(O)C(O)C1O (some centres not stated) | inactive: 7.08 µM
2 | COC(c1ccc(O)cc1)C1NC(=O)[C@H](CCC(N)=O)N(C)C(=O)[C@H](CC(C)C)NC(=O)[C@@H](CCCN=C(N)N)NC(=O)[C@H](C(C)O)NC(=O)[C@@H](NC(=O)[C@@H](NC(=O)[C@H](O)[C@H](O)[C@H](CCCN=C(N)N)NC(=O)[C@H](C)NC(=O)[C@H](C)[C@H](O)[C@@H](C)CC(C)C)[C@@H](C)[C@@H](C)C(N)=O)[C@@H](C)OC(=O)[C@H](C)N(C)C1=O (stereo partly drawn) (X46-A[γ4hArg(2R,3R-(OH)2)][Gln(3S,4R-Me2)]T[Thr(3ξ)][dR]L[NMeQ][X47][NMeA]; ester 4-C) | active: 0.355 µM
3 | CCCCNC1CCCCC[C@H]1O (some centres not stated) | inactive: > 100 µM
4 | NC(=O)C(Nc1ccc(Cl)cc1)c1cc2cc(Br)ccc2nc1Cl (configuration not stated) | inactive: > 50 µM
5 | NC(=S)N/N=C1/C(=O)N(c2ccc(Cl)cc2Cl)C(=O)C(=O)C1c1nc2ccccc2s1 (configuration not stated) | inactive: > 100 µM
6 | Clc1nc2c(-c3cccs3)ncnc2n1Cc1ccccc1 | inactive: 2.15 µM
7 | CSc1ccc(C=C2N=C(c3ccccc3)N(c3cc(C(=O)c4ccccc4)ccc3N3C(=O)/C(=C/c4ccc(SC)cc4)N=C3c3ccccc3)C2=O)cc1 | inactive: > 100 µM
8 | O=C(O)CSCCc1ccccc1 | inactive: > 100 µM
9 | CCN(CC)[C@@H]1c2cc3c(cc2C(c2cc(OC)c(O)c(OC)c2)C2C(=O)CO[C@@H]21)OCO3 (some centres not stated) | inactive: > 100 µM
10 | COc1ccc(/C=C2\CCC(CCN(C)C)(C3=CCCC3)C2=O)cc1 (configuration not stated) | inactive: 17.7 µM
11 | Cn1c(=O)c2ccccc2[n+]2c(-c3cccc([N+](=O)[O-])c3)csc12 | inactive: > 100 µM
12 | C/C(=N\O)C(CN1CCCCC1)C(c1ccccc1)c1c(O)c2ccccc2oc1=O (configuration not stated) | inactive: > 100 µM
13 | CC(C)NC(=O)OCc1nnn2c1CCC2 | inactive: > 100 µM
14 | CC(/C=N\NC(=S)N1CCCCC1)=N/NC(=S)N1CCCCC1 | inactive: 1.29 µM
15 | CCOC(=O)C1(C/C=C/CBr)Cc2ccccc2C1=O (configuration not stated) | inactive: 14.3 µM
16 | O=C(Nc1ccc(Cl)cc1)c1cc(S(=O)(=O)Nc2n[nH]c(=O)n2-c2ccccc2)c(S)cc1Cl | inactive: > 100 µM
17 | COc1cc([C@@H]2c3cc4c(cc3[C@@H](Nc3ccc(Cl)cc3C(=O)c3ccccc3Cl)[C@H]3COC(=O)[C@H]23)OCO4)cc(OC)c1OC | active: 0.492 µM
18 | CN(C)CCC(=O)N1CCc2c([nH]c3ccccc23)C1c1cccnc1 (configuration not stated) | inactive: > 100 µM
19 | O=C(NCCCN1CCN(CCCNC(=O)c2cnc3ccccc3n2)CC1)c1cnc2ccccc2n1 | inactive: > 100 µM
20 | CCc1c(O)c2c(c(O)c1C(C)=O)C(=O)c1c(cc(O)c(C(=O)O)c1C(=O)O)C2=O | inactive: > 100 µM
21 | CC(=O)C1Cn2c(nc3ccccc32)C[Se]1 (configuration not stated) | inactive: 6.37 µM
22 | O=C(Nc1ccccc1SC(/C=C/NNC1=NN=C(c2ccccc2)C(c2ccccc2)N1)c1ccccc1)c1ccc(Cl)cc1Cl (configuration not stated) | inactive: 50.5 µM

Row | SMILES | GI50
23 | Nc1nc(Cl)cc(NCC2(CCO)CCC2)n1 | inactive: > 100 µM
24 | c1ccc2c(c1)CC1c3[nH]c4ccccc4c3CCN21 (configuration not stated) | inactive: > 10 µM
25 | CCOC(=O)C1=C(C)N(c2ccc(C)cc2)C2=C(C(=O)N(c3ccccc3)C2c2ccccc2)C1c1ccccc1 (configuration not stated) | inactive: > 25 µM
26 | C=C1C(=O)OC2/C=C(/C)C(OC(C)=O)C/C=C(\C)C(OC(=O)C3(C)OC3C)C(O)C12 (configuration not stated) | inactive: > 100 µM
27 | O=C1NC(=O)C2C1c1[nH]c3ccccc3c1C1CCCC12 (configuration not stated) | inactive: 15.8 µM
28 | Cn1c(=O)nc2n(-c3ccc(Cl)cc3)c3ccc(Cl)cc3nc-2c1=O | inactive: 15.3 µM
29 | COP1(=O)OCc2cnccc2O1 (configuration not stated) | inactive: > 100 µM
30 | O=C1CC(c2ccc(Cl)cc2)C2(C(=O)NC(=S)NC2=O)C(c2ccc(Cl)cc2)C1 (configuration not stated) | inactive: 17.7 µM
31 | COC(=O)[C@@H]1C2OC(C)(C)OC2CN1C(=O)OCc1ccccc1 (some centres not stated) | inactive: > 100 µM
32 | Cc1cc(Br)cc(C)c1NC(=O)C(=O)CC(=O)c1sc(-n2nc(-c3ccccc3)cc2-c2ccccc2)nc1C | inactive: 82.4 µM
33 | Cc1cc2c(cc1Cl)SC(NNc1cnc3ccccc3n1)=NS2(=O)=O | inactive: 34 µM
34 | CC1CNC(c2ccc(CN3CCC(C4CCN(Cc5ccc(C6=NC(C)CN6)cc5)CC4)CC3)cc2)=N1 (configuration not stated) | inactive: 23.6 µM
35 | C#CC[C@@]12CC(=O)C[C@@H]1CCC1(C2)OCCO1.C#CC[C@]12CC(=O)CC[C@H]1CC(=O)C2 | inactive: > 100 µM
36 | OCCN(CCO)c1cccc(N(CCO)CCO)c1 | inactive: > 100 µM
37 | COC(=O)/C=C/c1cc(OC)c2oc(-c3ccc(OC)c(OC)c3)c(C(=O)OC)c2c1 | inactive: > 100 µM
38 | CC(=O)c1ccc(/N=N/N2CCCC2)cc1 | inactive: > 100 µM
39 | O=C1c2ccccc2NC1(c1ccccc1)c1c(-c2ccccc2)[nH]c2ccccc12 (configuration not stated) | inactive: 83.9 µM
40 | COc1ccc([Se]c2ccc(OC)cc2OC)c(OC)c1 | inactive: 51.8 µM
41 | C=C=CC(NC(=O)c1ccccc1)(C(=O)O)C(F)(F)F (configuration not stated) | inactive: > 100 µM
42 | COc1ccc(/C=C(\C#N)c2ccccn2)cc1OC | inactive: 70.6 µM
43 | COc1cc(/C=C/C(=O)O)ccc1O [FERULATE] | inactive: > 100 µM
44 | O=C1c2ccccc2C(=O)N1n1c(Cc2ccc([N+](=O)[O-])cc2)n[nH]c1=O | inactive: > 100 µM

Row | SMILES | GI50
45 | Cc1ccc(C(=O)O/N=C2/CCC/C2=C\c2ccccc2)cc1 | inactive: > 100 µM
46 | O[C@H]1[C@H](O)[C@@H](O)CN2CC[C@H](O)[C@H]12 [CASTANOSPERMINE] | inactive: > 100 µM
47 | COc1ccc2c(c1)OC[C@@H]1c3cc4c(cc3O[C@H]21)OCO4 | inactive: > 100 µM
48 | CC(Br)C(=O)NN1C2=C(Nc3ccccc31)c1cccc3cccc2c13 (configuration not stated) | inactive: 91 µM
49 | O=C(O)/C=N\N=c1[nH]c2ccccc2[nH]1 | inactive: > 100 µM
50 | COCN1COCN(C)C1=O | inactive: > 100 µM
51 | CCOC(=O)C1=C(C)NC2=C(C(=O)N(c3ccccc3)C2c2ccccc2)C1c1ccccc1 (configuration not stated) | inactive: 16.6 µM
52 | Cc1c(C(=O)CSc2nc3cc([N+](=O)[O-])ccc3[nH]2)c(=O)n(-c2ccccc2)n1C | inactive: > 100 µM
53 | CC1(C)OC(C(C)(C)O)C(C(C)(C)O)O1 (configuration not stated) | inactive: > 100 µM
54 | CC(C)(CCCCC(C)(C)NCC1COc2ccccc2O1)NCC1COc2ccccc2O1 (configuration not stated) | inactive: > 10 µM
55 | CC(C)(C)[Si](C)(C)OCC1C=CC(n2cnc3c(N)ncnc32)O1 (configuration not stated) | inactive: > 81.1 µM
56 | Cc1[nH]c2ncn3nc(C(Cl)(Cl)Cl)nc3c2c1Cc1ccccc1 | inactive: > 100 µM
57 | O=C(O)Cc1cccc2c1OC(c1ccccc1)C(Cl)(C(=O)c1ccccc1)C2=O (configuration not stated) | inactive: 21.3 µM
58 | Cc1ccccc1-n1c(=O)c2ncn(CCCl)c2n(-c2ccccc2C)c1=S | inactive: > 100 µM
59 | CCOC(=O)C1S/C(=N\C(=N)N[N+](=O)[O-])N=C1C (configuration not stated) | inactive: > 100 µM
60 | Clc1ccc(/C=C/c2nc(-c3ccc(Cl)cc3)cn3c2nc2ccccc23)cc1 | inactive: > 100 µM
61 | CCOC(=O)CC(=O)ON(C)C(=O)Cc1ccccc1 | inactive: > 100 µM
62 | CCOC(=O)Oc1cc2ccsc2c2c1c1ccccc1n2C(=O)OCC | inactive: 43.3 µM
63 | O=C(/C=C1\C[C@H]2C=Nc3ccccc3C(=O)N2C1)NCCCNC(=O)/C=C1\C[C@H]2C=Nc3ccccc3C(=O)N2C1 | inactive: 16.8 µM
64 | COC(=O)C1CCC(=O)N1C(c1ccc(OC)cc1)c1ccc2c(c1)OCO2 (configuration not stated) | inactive: 57.1 µM
65 | COc1cc2c(c(OC)c1OC)-c1ccc(SC)cc1[C@H](OC(=O)c1ccccc1)CC2 | active: 0.104 µM
66 | CC(C)CC(NC(=O)C(CI)Cc1ccccc1)C(=O)Nc1ccccc1 (configuration not stated) | inactive: > 100 µM

Row | SMILES | GI50
67 | N=C(CSSCC(=N)NCC12CC3CC(CC(C3)C1)C2)NCC12CC3CC(CC(C3)C1)C2 | inactive: 14 µM
68 | CCCCNC1=C(C(=O)OCC)C(=O)CO1 | inactive: > 100 µM
69 | O=C(O)CC(C(=O)O)c1ccccc1[N+](=O)[O-] (configuration not stated) | inactive: > 100 µM
70 | O=S(=O)(CCn1c(Sc2ccccc2)c(Sc2ccccc2)c2ccccc21)c1ccccc1 | inactive: > 100 µM
71 | COC(=O)C1=C(c2ccc3c(c2)OCO3)O[C@H](c2cc(OC)c(OC)c(OC)c2)[C@H]1COC(C)=O | inactive: 6.55 µM
72 | COc1ccc(-c2cc(O)c3cccnc3n2)cc1 | inactive: 35.2 µM
73 | CCOC(=O)CC[C@H](N)C(=O)N[C@@H](Cc1ccc(N(CCCl)CCCl)cc1)C(=O)OCC | inactive: 6.4 µM
74 | CN(/N=C/c1ccc(C(=O)O)cc1)C1=NCCCCN1 | inactive: > 100 µM
75 | C=CC(=O)N1C/C(=C\c2ccc(Cl)c(Cl)c2)C(=O)/C(=C/c2ccc(Cl)c(Cl)c2)C1 | active: 0.296 µM
76 | CSc1ccc2c(cc1=O)[C@@H](NC(=O)c1cccc([N+](=O)[O-])c1)CCc1cc(O)c(O)c(O)c1-2 | inactive: 33.5 µM
77 | O=C1CCCc2c(O)ccc(O)c21 | inactive: > 100 µM
78 | C/N=c1\sc2nc(C#N)c(C#N)nc2n1C | inactive: 17.8 µM
79 | CCCCCCCCC(=O)CCCCCCCCC(=O)O | inactive: 24.6 µM
80 | COC(=O)C(F)C(Br)C(=O)OC (configuration not stated) | inactive: 16.7 µM
81 | O=S(=O)(c1ccc(Br)cc1)N1CCN(S(=O)(=O)c2ccc(Br)cc2)CC1 | inactive: > 100 µM
82 | O=C1CNNC(CSc2nc3ccc(I)cc3c(=O)n2Cc2ccccc2)=N1 | inactive: 38.8 µM
83 | CC1(C)N=C(c2ccccn2)C(c2ccccn2)=NC1(C)C | inactive: > 100 µM
84 | O=C(/C=C/c1ccc(-c2ccccc2)cc1)c1ccccc1 | inactive: 31.5 µM
85 | CN(C)CCNc1ccc(NCC[N+](C)(C)Cc2ccc([N+](=O)[O-])cc2)c2c1C(=O)c1ccccc1C2=O | inactive: > 25 µM
86 | CCCCCCCCCCCCCCCCCCOC(COP(=O)(O)OCC1OC(n2cc(F)c(=O)[nH]c2=O)CC1O)COP(=O)(O)OCC1OC(n2ccc(N)nc2=O)C(O)C1O (configuration not stated) | inactive: 36 µM
87 | CCCCSC1=N/C(=C\c2ccc(N(C)C)cc2)C(NN)=N1 | inactive: > 100 µM
